From PubChem BioAssay AID1030 (National Center for Advancing Translational Sciences (NCATS), 2008)
Among all 220,000 compounds or so, about 16,000 (7.3%) were called active. Inconclusive means that the source gave no clear call. Such entries were picked first, then a sample of the others. The call rests on the fitted dose curve; in most records, active means well fitted inhibition curve with a large enough effect (not every such curve was filed as active); inconclusive means small, poorly fitted or top-dose-only effect, or another doubt; inactive means no such curve, though single readings can be large or run the other way. Potencies of inconclusive entries are left out as doubtful fits.

Biological target: Aldehyde dehydrogenase 1A1 (Homo sapiens) (UniProt P00352)
Chain of UniProt P00352 (P00352 whole entry, looked up): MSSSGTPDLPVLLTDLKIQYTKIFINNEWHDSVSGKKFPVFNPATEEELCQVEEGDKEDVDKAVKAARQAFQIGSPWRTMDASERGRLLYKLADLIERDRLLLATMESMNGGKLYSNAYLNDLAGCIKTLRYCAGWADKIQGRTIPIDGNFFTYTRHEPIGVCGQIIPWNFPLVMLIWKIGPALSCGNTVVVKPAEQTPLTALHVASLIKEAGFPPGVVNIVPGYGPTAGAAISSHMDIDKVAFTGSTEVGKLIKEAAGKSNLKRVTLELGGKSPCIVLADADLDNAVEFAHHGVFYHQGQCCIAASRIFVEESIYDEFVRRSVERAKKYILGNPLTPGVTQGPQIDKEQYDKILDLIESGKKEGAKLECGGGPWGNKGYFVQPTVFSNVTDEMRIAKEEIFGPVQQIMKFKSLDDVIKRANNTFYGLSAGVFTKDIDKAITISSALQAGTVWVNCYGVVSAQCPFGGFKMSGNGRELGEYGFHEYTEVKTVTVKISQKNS
Experiment: qHTS Assay for Inhibitors of Aldehyde Dehydrogenase 1 (ALDH1A1);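 on activity, negative = inhibition: plate controls were no enzyme wells and a reference inhibitor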
Conditions: Purified ALDH1A1, NADH fluorescence, propionaldehyde substrate; series mostly up to 75.3 µM
Potency means the concentration at half of the fitted maximal effect; tags describe the fitted curve by direction and shape.

Row | SMILES | Potency | activity, negative = inhibition
1 | Cc1ccc(S(=O)(=O)n2c(CN3CCCC(C)C3)nc3ccccc32)cc1 (centres undefined) | inconclusive [inhibitor, partial curve] | 
2 | CCOC(=O)Cn1nc(/C=C/c2ccc(C)cc2)ccc1=O | inconclusive [inhibitor, single point] | 
3 | CCOc1ccc(S(=O)(=O)N/N=C(\C)Cc2ccc(OC)cc2)cc1 | active: 2.82 µM | 
4 | Cc1[nH]c2ccccc2c1/C=C/C(=O)c1ccccc1 | inconclusive [inhibitor, single point] | 
5 | CC(C)(C)c1ccc(OCC(=O)NCc2ccco2)cc1 | inactive | 
6 | CCOc1cc(S(=O)(=O)n2nc(C)cc2C)ccc1Br | inactive | 
7 | COc1ccc(C(=O)N/N=C2/SCC(=O)N2Cc2ccc3c(c2)OCO3)cc1OC | active: 20 µM | 
8 | C=CCc1cccc(C2NC(C(=O)O)CCC2C)c1 (centres undefined) |  | inactive: 5.35% [at 13.5 µM]
9 | CC(=O)c1cccc(N/C=C\C(=O)c2ccc(C)cc2)c1 | inconclusive [inhibitor, single point] | 
10 | Cc1cc(N2CCN(C(=O)c3ccco3)CC2)n2nc(-c3cccc(F)c3)cc2n1 | inconclusive [inhibitor, single point] | 
11 | COc1ccccc1NS(=O)(=O)c1cc(NC(=O)c2ccncc2)ccc1N1CCCC1 | active: 11.2 µM | 
12 | Cc1cccc(Cn2c(N3CCCCC3C)nc3c2c(=O)[nH]c(=O)n3C)c1 (centres undefined) | active: 0.282 µM | 
13 | Cc1ccccc1-c1nsc(SCC(=O)NCc2ccc3c(c2)OCO3)n1 | active: 22.4 µM | 
14 | Cc1cc(C)nc(CCNC(=O)c2cc(COc3ccc(F)cc3Cl)on2)n1 | inactive | 
15 | OCC(O)C(O)C(O)CO (centres undefined) | inactive | 
16 | Cc1ccccc1Cn1nc(C)c(NC(=O)c2cc(-c3ccco3)on2)c1C | inconclusive [inhibitor, single point] | 
17 | CCOC(=O)c1ccc(COC(=O)c2cc3ccccc3oc2=O)o1 | inconclusive [inhibitor, single point] | 
18 | CCN(CC)S(=O)(=O)c1ccc(Cl)c(NC(=O)c2ccc(C#N)cc2)c1 | inconclusive [inhibitor, single point] | 
19 | COc1ccc(C(=O)OCc2c(C)noc2C)cc1 | inconclusive [inhibitor, single point] | 
20 | CS(=O)Cc1cc(Sc2ccccc2)nc(-c2ccncc2)n1 (centres undefined) | active: 8.91 µM | 
21 | CN(C)C(CNC(=O)c1cccc(S(=O)(=O)N2CC3(C)CC2CC(C)(C)C3)c1)c1ccco1 (centres undefined) | inconclusive [inhibitor, single point] | 
22 | COC(=O)c1c(C(=O)OC)c2ccncn2c1Cl | inconclusive [inhibitor, partial curve] | 
23 | CCN(CC)C(=O)C1CCCN(c2ccc([N+](=O)[O-])cc2/C=N/NC(=O)c2ccc([N+](=O)[O-])cc2)C1 (centres undefined) | inconclusive [inhibitor, partial curve] | 
24 | CC1(C)CC(=O)C=C(Nc2ccc(OCC(F)(F)C(F)F)cc2)C1 | inconclusive [inhibitor, single point] | 
25 | COc1cccc(Nc2ncc3nc(C)c(=O)n(Cc4cccs4)c3n2)c1 | inconclusive [inhibitor, single point] | 

Row | SMILES | Potency | activity, negative = inhibition
26 | COc1ccc(OC)c(C2=NOC(C(=O)NCc3ccccn3)C2)c1 (centres undefined) | inconclusive [inhibitor, single point] | 
27 | COC(=O)c1ccccc1NC(=S)NC(=O)c1ccccc1 | inconclusive [inhibitor, single point] | 
28 | COC(=O)c1ncccc1SC | inactive | 
29 | COC(=O)c1ccccc1NC(=O)Cn1nnc(-c2ccc(OC)cc2)n1 | inconclusive [inhibitor, single point] | 
30 | O=C(Nc1nc2ccc(F)cc2s1)c1cccc(S(=O)(=O)N2CCc3ccccc32)c1 | inconclusive [inhibitor, single point] | 
31 | Cc1noc(C)c1C(=O)OCC(=O)c1cc(C)n(Cc2ccccc2Cl)c1C | inactive | 
32 | CC1CCN(S(=O)(=O)c2ccc3ncn(CC(=O)N4CCN(C)CC4)c(=O)c3c2)CC1 | inactive | 
33 | NS(=O)(=O)c1ccc(CNC(=O)C23CC4CC(CC(C4)C2)C3)cc1 | inconclusive [inhibitor, single point] | 
34 | O=C1[C@@H]2[C@H](C(=O)N1O)[C@H]1C=C[C@@H]2C1 | active: 0.631 µM | 
35 | CC(=O)c1cc(F)c(N2CCN(CCC#N)CC2)cc1C | active: 28.2 µM | 
36 | COc1cc2c(=O)n(Cc3ccco3)c(=O)n(CC(=O)c3ccc(Br)cc3)c2cc1OC | active: 0.398 µM | 
37 | CCOC(=O)c1ccc2c(c1)N(CC#N)C(=O)C(C)(C)O2 | inconclusive [inhibitor, partial curve] | 
38 | CCOC(=O)C(Cc1ccc(OC)c([N+](=O)[O-])c1)NC(=O)CCC(=O)Nc1ccc(OC)cc1 (centres undefined) | active: 4.47 µM | 
39 | O=c1oc2ccccc2cc1O | inactive | 
40 | CCc1nnc(NC(=O)CCCSc2nc3ccccc3[nH]2)s1 | inactive | 
41 | CC(=O)Nc1ccccc1NC(=O)c1ccc(C)c(C)c1 | inactive | 
42 | O=P(O)(O)CCP(=O)(c1ccccc1)c1ccccc1 | inconclusive [inhibitor, single point] | 
43 | COc1ccccc1N1CCN(C(=O)CSc2ncccc2-c2nc3ccccc3[nH]2)CC1 | inconclusive [inhibitor, partial curve] | 
44 | S=C(Nc1ccc(Br)cc1)N1CCn2cccc2C1c1cccnc1 (centres undefined) | inconclusive [inhibitor, single point] | 
45 | COc1cc([C@@H]2[C@H]3CNCC=C3C(C#N)=C(N)C2(C#N)C#N)ccc1OC(C)C | inconclusive [inhibitor, single point] | 
46 | FC(F)Oc1ccc(NC(=S)NNc2ccnc3cc(Cl)ccc23)cc1 | active: 8.91 µM | 
47 | CCOc1cc(NC(=S)NCC2CCCO2)c(OCC)cc1NC(=O)c1ccc(OC)cc1 (centres undefined) | inactive | 
48 | COc1ccc(C(CC(=O)N2CCCCC2)C(C)C)cc1 (centres undefined) | inactive | 
49 | CCN(CC)c1ccc(S(=O)(=O)N2CCOCC2)cc1NC(=O)CNCc1ccccc1 | inconclusive [inhibitor, single point] | 
50 | O=C(CSc1ccc(Cl)cc1)NC1CCCc2ccccc21 (centres undefined) | inconclusive [inhibitor, single point] | 

Row | SMILES | Potency | activity, negative = inhibition
51 | Cc1cc(C)c(NC(=O)CN)c(C)c1 | inactive | 
52 | O=C1OC(Cc2ccccn2)C(=O)C1=C1SCCS1 (centres undefined) | inactive | 
53 | Cc1cc(NC(=O)COC(=O)C2CCC(=O)N2)c([N+](=O)[O-])cc1C (centres undefined) | inconclusive [inhibitor, single point] | 
54 | Cc1ccc(CN2CCN(CC(=O)N3CCc4ccccc4C3)C2=O)cc1 | inconclusive [inhibitor, single point] | 
55 | Cc1cccc2nc(-c3ccco3)c(Nc3ccc4c(c3)OCCO4)n12 | inconclusive [inhibitor, single point] | 
56 | O=C1c2ccccc2-c2cc([N+](=O)[O-])c([N+](=O)[O-])cc21 | inconclusive [inhibitor, partial curve] | 
57 | O=C(CSc1nc2c(c(=O)n1-c1ccc(Br)cc1)SCC2)NCC1CCCO1 (centres undefined) | inconclusive [inhibitor, single point] | 
58 | Cc1ccc(S(=O)(=O)Oc2ccc(/C=C(/NC(=O)c3ccccc3)C(=O)NCC(=O)O)cc2)cc1 | active: 5.01 µM | 
59 | COc1ccc(C2C(C(=O)OCC(=O)N3CCCCC3)CCC(=O)N2c2ccc(OC)cc2)cc1 (centres undefined) | inconclusive [inhibitor, partial curve] | 
60 | COc1ccc(-c2cc(C(F)(F)F)c(C#N)c(SCC(=O)Nc3nc(C)co3)n2)cc1 | inconclusive [inhibitor, single point] | 
61 | CC1(C)CC(=O)c2cc(NC(=O)c3ccccc3)c(=O)oc2C1 | inconclusive [inhibitor, single point] | 
62 | COc1ccccc1N=c1oc2cc(O)ccc2cc1C(=O)NCC1CCCO1 (centres undefined) | inconclusive [inhibitor, partial curve] | 
63 | CCN(CC)c1ccc(NC(=S)NC(=O)c2cccs2)cc1 | active: 8.91 µM | 
64 | NNC(=O)C=C1CCN(c2ncc(C(F)(F)F)cc2Cl)CC1 | active: 15.8 µM | 
65 | CCOC(=O)C1CCCN(Cc2cc(OC)c(O)c(OC)c2)C1 (centres undefined) | inconclusive [inhibitor, single point] | 
66 | O=C(CCN1CCN(CCO)CC1)Nc1ccc(C2CCCC2)cc1 | inconclusive [inhibitor, partial curve, poor fit] | 
67 | C=CCn1c(SCC(=O)C(C)(C)C)nnc1-c1ccccn1 | inconclusive [inhibitor, partial curve] | 
68 | COc1ccc(-c2nnn(CC(=O)Nc3sc4c(c3C#N)CCCC4)n2)cc1 | active: 10 µM | 
69 | Cc1ccccc1S(=O)(=O)NC1OC(=O)C(Oc2ccccc2)=C1Br (centres undefined) | inactive | 
70 | CCCCNc1nc(CC(C)=O)ns1 | inactive | 
71 | CN(C)CC(=O)N1c2ccccc2CCc2ccc(NC(=O)c3ccc(N)cc3)cc21 | inconclusive [inhibitor, single point] | 
72 | CCOC(=O)Cc1csc(Nc2ccc(Cl)cc2)n1 | inactive | 
73 | COc1ccc(OC)c(NC(=O)c2cc3oc4ccccc4c3cc2O)c1 | inconclusive [inhibitor, partial curve] | 
74 | Cc1nc(NCCCn2ccnc2)c2ccccc2n1 | inconclusive [inhibitor, single point] | 
